# About 1,100 (0.38%) of roughly 290,000 compounds were called active. The shares of active, inactive and inconclusive entries below differ from those in the screen. Calls follow the shape of the dose curve; as a rule, active = well fitted inhibition curve with a large enough effect; inconclusive = small, poorly fitted or top-dose-only effect, or another doubt; inactive = no such curve, though single readings can be large or run the other way. Where the call is inconclusive, the potency comes from a doubtful curve fit.
# Target: Pyruvate kinase (Leishmania mexicana) (UniProt Q27686)
# Chain of UniProt Q27686 (Q27686 whole entry, looked up): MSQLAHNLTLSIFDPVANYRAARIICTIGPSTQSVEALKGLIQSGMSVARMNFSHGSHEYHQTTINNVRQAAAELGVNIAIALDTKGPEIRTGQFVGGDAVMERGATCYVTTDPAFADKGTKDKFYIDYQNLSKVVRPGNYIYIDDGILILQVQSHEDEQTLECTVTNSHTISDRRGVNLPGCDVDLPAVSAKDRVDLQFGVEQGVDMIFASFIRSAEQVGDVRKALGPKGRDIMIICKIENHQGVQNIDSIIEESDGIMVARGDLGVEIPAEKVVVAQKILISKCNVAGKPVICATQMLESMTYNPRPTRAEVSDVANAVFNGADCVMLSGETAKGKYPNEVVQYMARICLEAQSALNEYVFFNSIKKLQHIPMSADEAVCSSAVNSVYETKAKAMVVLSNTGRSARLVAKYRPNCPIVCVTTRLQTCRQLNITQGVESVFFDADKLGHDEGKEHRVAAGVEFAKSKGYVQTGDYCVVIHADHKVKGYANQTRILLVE
# Test: qHTS Assay for Inhibitors of Leishmania Mexicana Pyruvate Kinase (LmPK)
# Conditions: purified LmPK, Kinase-Glo ATP luminescence, 1 h; activity change, negative = inhibition: at 57.5 µM (top of the series) unless noted
# Procedure, shortened: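 Kinase-Glo luminescence read after 1 h RT reaction of 0.1 nM LmPK with 0.5 mM PEP and 0.1 mM ADP. Activity scaled between uninhibited and enzyme-free controls.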
# % is scaled to controls: 0 for no effect and ±100 for the full control effect; potency is read from the fitted curve at half-maximal effect; tags tell the direction and shape of the fitted curve.
Compound,"activity change, negative = inhibition",Potency
CC(C)CCN1CCN(Cc2cccc(C(F)(F)F)c2)CC1CCO (stereo not given),inactive: 0.623%,
Cc1cccc(NC(=S)NNC(=O)c2sccc2C)c1,,"inconclusive: 8.91 µM [falling, partial curve]"
N#Cc1ccc(/C=C/C(=O)c2ccccc2)cc1,inactive: -11.1%,
O=C(CC(Nc1ccc(Cl)cc1)C(=O)O)c1ccccc1 (stereo not given),,"inconclusive: 20 µM [falling, single point]"
O=C(N/N=C/c1cccs1)c1ccccn1,,"inconclusive: 15.8 µM [falling, partial curve]"
CCOC(=O)C1(CCc2ccccc2)CCN(C(=O)Cc2nonc2C)CC1,inactive: -4.98%,
O=C(Nc1ccccc1)C1=C[C@@H](c2ccc(Br)cc2)C[C@@H](OCc2ccc(CO)cc2)O1,inactive: 9.57%,
O=C(Nc1ccc2c(c1)OCCO2)c1cnccn1,,"inconclusive: 28.2 µM [falling, single point]"
Cc1cc(Cl)ccc1OCc1n[nH]c(=S)n1C1CCCCC1,,active: 12.6 µM
C=CCn1c(-c2cccc(Cl)c2)n[nH]c1=S,,"inconclusive: 22.4 µM [falling, single point]"
CC[n+]1c(/C=C/c2ccc(N(C)C)cc2)ccc2ccccc21,,"inconclusive: 15.8 µM [falling, partial curve]"
C=CCN=C1NN=C(c2cc(C)n(CC=C)c2C)CS1,,"inconclusive: 20 µM [falling, partial curve]"
CCCCCCCc1nc2nc(C)c(Br)c(=O)n2[nH]1,,"inconclusive: 39.8 µM [falling, single point]"
NC(=O)c1ccsc1NC(=O)c1ccc2c(c1)CCCC2,,"inconclusive: 15.8 µM [falling, partial curve]"
S=c1[nH]ccn1-c1cccc(Cl)c1,,"inconclusive: 20 µM [falling, single point]"
CCc1ccc2oc(-c3cccc(N)c3)nc2c1,,"inconclusive: 15.8 µM [falling, partial curve]"
CC[n+]1ccc2cc(OC)c(OC)cc2c1Cc1ccc(OC)c(OC)c1,inactive: 22.5%,
Cc1ccc(C2CC2c2n[nH]c(=S)n2-c2cccc(C)c2)cc1 (stereo not given),,"inconclusive: 15.8 µM [falling, partial curve]"
O=C(O)CC(CC(=O)Nc1ccc2ccccc2n1)c1ccccc1 (stereo not given),inactive: 0.504%,
c1cc2c(cc1C1=NNC(=NC3CC3)SC1)OCCO2,,active: 11.2 µM
CC(=O)Nc1ccc(SCC(=O)N(C)C2CCS(=O)(=O)C2)cc1 (stereo not given),inactive: 5.61%,
COc1cccc(C(=O)Nc2ccc(NC(=O)C(C)(C)C)cn2)c1,,"inconclusive: 14.1 µM [falling, partial curve]"
CN(C)S(=O)(=O)c1ccc(NC(=O)Cc2ccc(S(=O)(=O)N3CCOCC3)s2)cc1,inactive: -2.19%,
Cc1csc(N/N=C/c2ccc(O)c([N+](=O)[O-])c2)n1,,"inconclusive: 12.6 µM [falling, partial curve]"
Cc1cc(NC(=O)c2cccc(F)c2)ncc1NC(=O)c1ccco1,,"inconclusive: 28.2 µM [falling, single point]"

Compound,"activity change, negative = inhibition",Potency
COc1nccnc1NS(=O)(=O)c1ccc(N=Cc2c(C)[nH]n(-c3ccc(C)c(C)c3)c2=O)cc1,,"inconclusive: 31.6 µM [falling, single point]"
O=C(Nc1nc2ccccc2[nH]1)c1ccccc1F,,active: 3.16 µM
COc1ccc(NC(=O)C=C(C)C)cc1Cl,,active: 15.8 µM
Cc1ccccc1-n1c(SCc2cc(=O)n3ccccc3n2)nc2[nH]ncc2c1=O,inactive: -1.81%,
CC(=O)c1cc(C#N)c(N2CCN(c3ccccc3)CC2)nc1C,,"inconclusive: 6.31 µM [falling, single point]"
O=c1c2ccccc2cnn1CCOc1ccccc1,,active: 12.6 µM
CCc1nnc(NS(=O)(=O)c2ccc(N=Cc3c(C)[nH]n(-c4ccc(C)cc4)c3=O)cc2)s1,,"inconclusive: 17.8 µM [falling, partial curve]"
C#CCOCCOCCOCCNc1nc(N2CCN(C(=O)[C@H](Cc3cc4ccccc4[nH]3)n3cc([C@@H](N)C(C)CC)nn3)CC2)nc(N2CCN(C(=O)[C@H](Cc3cc4ccccc4[nH]3)n3cc([C@@H](N)Cc4ccc(O)cc4)nn3)CC2)n1 (stereo not given in full),inactive: 5.03%,
CC(C)c1ccc(Nc2ncccc2C#N)cc1,,"inconclusive: 12.6 µM [falling, partial curve]"
CC(C)c1cc2c(c(O)c1O)[C@@]13CCCC(C)(C)C1CC2OC3=O (stereo not given in full),,active: 15.8 µM
C=CCn1c(SCC(=O)NNC(=S)Nc2ccccc2)nnc1-c1ccccc1,inactive: 8.73%,
O=C(CSC1=NS(=O)(=O)c2ccccc21)Nc1ccccc1,,active: 22.4 µM
C/C(=N\NC(=O)c1n[nH]c2c1CCC2)c1ccco1,,active: 15.8 µM
COc1ccc(-c2cc(=O)c3c(O)c(OC)c(O)cc3o2)cc1,,"inconclusive: 7.94 µM [falling, partial curve]"
Nc1cccc(-c2nc3ccccc3s2)c1,,active: 14.1 µM
O=C(Nc1ccc2ccccc2n1)c1ccccc1Cl,,"inconclusive: 22.4 µM [falling, partial curve]"
Cc1ccccc1-n1c(-c2ccc(=O)[nH]n2)n[nH]c1=S,,"inconclusive: 39.8 µM [falling, single point]"
COc1ccccc1C(=O)Nc1ccc(Br)cc1C,inactive: 2.32%,
COc1ccccc1C(=O)Nc1nsc(-c2ccccc2)n1,,"inconclusive: 28.2 µM [falling, single point]"
O=C(O)CSc1nnc2c(n1)[nH]c1ccccc12,,active: 28.2 µM
CCCNS(=O)(=O)c1ccc(NC(=O)c2ccccn2)cc1,,"inconclusive: 25.1 µM [falling, single point]"
Cc1cccc(NC(=O)CSc2nnc(C)c(=O)n2N)c1,inactive: -3.19% [at 11.5 µM],
Cc1cc(/C(N)=N/OC(=O)c2ccc(Cl)cc2)no1,,active: 15.8 µM
Cc1nc2cc3ccccc3cc2c(=O)[nH]1,,"inconclusive: 28.2 µM [falling, single point]"
C=CCn1cc(C(=O)N2CCN(c3ccccc3)CC2)c(=O)c2cc(S(=O)(=O)N3CCCC3)ccc21,inactive: -6.07%,

# Source: PubChem BioAssay AID1721 (National Center for Advancing Translational Sciences (NCATS), 2009)
